About 64,000 (15%) of roughly 420,000 compounds were called active. This list was built around the results that the source calls inconclusive (neither active nor inactive); the mix of calls is not that of the screen. Calls follow the shape of the dose curve; as a rule, active = well fitted inhibition curve with a large enough effect; inconclusive = small, poorly fitted or top-dose-only effect; inactive = flat fitted curve, though single readings scatter. Potencies of inconclusive entries are left out as doubtful fits.
assay: qHTS for Inhibitors of human tyrosyl-DNA phosphodiesterase 1 (TDP1): qHTS in cells in absence of CPT; details: DT40 Tdp1-/- hTDP1 cells, no CPT, ATP luminescence, 48 h; series mostly up to 46.2 µM; also: nearly all actives have a fitted effect of over 55% in size
Excerpt: Human tyrosyl-DNA phosphodiesterase 1 (TDP1) is a novel repair gene, and we propose to use it as a new target for anticancer drug development. TDP1 is not an essential protein, but under treatment with topoisomerase I poison (camptothecin: CPT), TDP1 works as a critical factor for cell survival. To directly identify novel TDP1 inhibitors active in a cellular environment, we have knocked-out the Tdp1 gene in chicken DT40 cells (Tdp1-/-) and generated a complemented counterpart cells that contains a stable transfection of the human TDP1 gene (Tdp1-/-;hTDP1 cells). For the primary screen, Tdp1-/-;hTDP1 cells will be exposed to small molecules in the presence or absence of CPT, and their growth kinetics will be evaluated after 48 hours by measuring ATP activity. […] The hit compounds will then be evaluated in the presence or absence of CPT using Tdp1-/- cells. […] In tertiary assays, biochemical gel-based assays will be used to assess whether the hit compounds specifically target TDP1.
To this end, we have screened this cell line against the MLSMR in two primary screens. In one screen we add CPT and in the other we screen in the absence of CPT; this AID represents the screen where CPT was absent.
NIH Chemical Genomics Center [NCGC]
NIH Molecular Libraries Probe Centers Network [MLPCN]
Assay Submitter (PI): Yves Pommier, NCI
DT40-hTDP1 cells without 20 nM Camptothecin (add 20 microL of DMSO in 1 L of cell culture medium) were dispensed at 400 cells/5microL/well in tissue culture treated 1536-well white wall/solid bottom assay plates (Greiner Bio-One North America, NC, U.S.A.) using a Multidrop Combi 8 channel dispenser (Thermo Fisher, Waltham, MA, USA). 23 nL compounds and controls were transferred using the pin tool (Kalypsys, San Diego, CA, USA) to the assay plates. The assay plates were then incubated at 37 masculineC for a minimum 48 hr. Three microL of Cell Titer Glo solution was added to the plates and incubated at RT in dark for 30 min. Luminescence was read using ViewLux (Perkin Elmer) with 1 sec exposure slow speed, high gain and 2x binning.
Potency is read from the fitted curve at half-maximal effect; tags tell the direction and shape of the fitted curve.

SMILES | Potency
Cc1ccc(S(=O)(=O)N2CCCCC2)cc1NC(=O)c1ccccn1 | inactive
Cc1oc2c(c1C(=O)Nc1cccc3ccccc13)CCCC2 | active: 13 µM
O=C(Nc1ccc(Br)cc1F)N1CCC(CN2CCc3ccccc3C2)CC1 | inconclusive [inhibitor, partial curve]
CC(OC(=O)/C(C#N)=C/c1ccc(N(C)C)cc1)C(=O)N(C)c1ccccc1 (stereo not given) | inconclusive [inhibitor, single point]
Oc1ccc(-c2csc(Nc3ncccn3)n2)cc1 | inconclusive [inhibitor, single point]
COc1ccc(C(=O)COC(=O)CCCC(=O)Nc2cc(C(F)(F)F)ccc2Cl)cc1 | inactive
CCCCOC(=O)c1ccc(NC(=O)c2cc(-c3cccs3)on2)cc1 | inconclusive [inhibitor, full curve]
O=C(CN(CCc1ccccc1)C(=O)c1csnn1)NC1CCCC1 | inactive
CCOC(=O)c1c(NC(=O)/C=C/c2ccc(C)cc2)sc2c1CCCC2 | inactive
COc1ccc(-n2c(Cc3cccn3C)nnc2SCC(=O)N2CCCc3ccccc32)cc1 | inconclusive [inhibitor, single point]
Cc1ccc(C(=O)CC(c2cccs2)S(=O)(=O)c2ccc(C)cc2)cc1 (stereo not given) | active: 14.6 µM
CC(NCCS(=O)(=O)c1ccc(Cl)cc1)c1cccc(Cl)c1 (stereo not given) | inconclusive [inhibitor, single point]
Cc1cccc(C)c1NC(=O)CN(C)CC(=O)Nc1cc(Cl)ccc1C#N | inconclusive [inhibitor, single point]
CN(Cc1ccccn1)C(=O)c1cc(COc2ccc(F)cc2Cl)on1 | active: 23.1 µM
O=C(Nc1nc2n(n1)C(c1ccc(Cl)cc1)CC(c1ccc(Cl)cc1)N2)c1ccco1 (stereo not given) | inconclusive [inhibitor, single point]
CCC(C)NC(=O)c1ccc2nc(CCc3ccccc3)oc2c1 (stereo not given) | active: 23.1 µM
Cc1ccc(NC(=O)C(=O)NCC(c2ccc3c(c2)OCO3)N2CCOCC2)cc1C (stereo not given) | inactive
Nc1ccc2nc(-c3ccccc3)[nH]c2c1 | inconclusive [inhibitor, partial curve]
CC(=O)Nc1ccc(-c2csc(NC(=O)C3CCN(S(=O)(=O)c4cccs4)CC3)n2)cc1 | active: 8.2 µM
O=C(NCCc1ccc(Cl)cc1)c1cc(-c2ccc(Cl)cc2)n[nH]1 | inconclusive [inhibitor, partial curve]
Cc1ccc(CNC(=O)CCCc2nnc3n(C)c(=O)c4sccc4n23)cc1 | inconclusive [inhibitor, single point]
CC1CCC(NC(=O)CC(C)(C)Cc2nc3ccccc3c(=O)[nH]2)CC1 (stereo not given) | active: 23.1 µM
COc1ccc(NC(=O)CN(C)C(C)C(=O)NC(=O)NC2CCCCC2)cc1 (stereo not given) | inactive
Cc1ccc(C(O)P(=O)(OC(C)C)c2ccc(N(C)C)cc2)cc1 (stereo not given) | inconclusive [inhibitor, single point]

SMILES | Potency
O=C(CSc1nc(-c2ccccc2)nc2c1Cc1ccccc1O2)N1CCCCC1 | active: 11.6 µM
O=C(Nc1ccnn1C1CCN(C(=O)c2ccc(Cl)c(F)c2)CC1)C1CCOC1 (stereo not given) | inactive
COc1cc(OC)c(C(=O)Nc2cc(S(=O)(=O)N3CCOCC3)ccc2N2CCOCC2)cc1OC | inconclusive [inhibitor, single point]
Cc1ccc(C2CC(c3cccs3)=NN2C(=O)CSc2nc3ccccc3o2)cc1 (stereo not given) | inconclusive [inhibitor, single point]
CC(C)CN(C(=O)COC(=O)c1c(Cl)ccc(Cl)c1Cl)C1CCS(=O)(=O)C1 (stereo not given) | inconclusive [inhibitor, single point]
O=C(NCc1ccccc1F)C(=O)NCC(c1ccco1)S(=O)(=O)c1cccs1 (stereo not given) | inconclusive [inhibitor, partial curve]
CC(=O)n1cc(Nc2ccc([N+](=O)[O-])cc2)c2ccccc21 | inconclusive [inhibitor, partial curve]
O=C(N/N=C/c1ccccc1O)C1CCCC1 | inconclusive [inhibitor, single point]
Cc1ccccc1CNC(=O)CC1C(=O)NCCN1CC1CCCCC1 (stereo not given) | inconclusive [inhibitor, single point]
COc1ccc(N2CCN(CC(=O)NC(C)c3ccccc3)CC2)cc1 (stereo not given) | inactive
O=C1CC2(CCN(C(=O)C3CC(=O)N(c4ccc(F)cc4)C3)CC2)Oc2ccccc21 (stereo not given) | inconclusive [inhibitor, single point]
Cc1cccc(NC(=O)CN(c2ccc(C(C)C)cc2)S(=O)(=O)c2c(C)nn(C)c2C)n1 | inconclusive [inhibitor, single point]
CC(=O)NC(Cc1cccc(C)c1)C(=O)NC1CCN(c2ncccc2[N+](=O)[O-])CC1 (stereo not given) | inconclusive [inhibitor, single point]
CCc1c(C)nc2c(C)cccc2c1SCCC#N | inconclusive [inhibitor, single point]
O=C(Nc1ccc2oc(-c3ccc4ccccc4c3)nc2c1)c1ccc(Cl)c(Cl)c1 | inconclusive [inhibitor, single point]
CSc1c(SCc2ccccc2)cnn(Cc2ccccc2)c1=O | inactive
COc1ccc2oc(C(=O)N(Cc3ccco3)Cc3cccs3)c(C)c2c1 | inconclusive [inhibitor, single point]
Cc1ccc(C(=O)NCC(=O)N2CCCCCCC2)cc1 | inactive
COc1ccc2c(c1)CCC1(C)CC(=O)C=C21 (stereo not given) | inactive
Cc1ccc(/C=C/C(=O)N2CCC(Cc3ccccc3)CC2)cc1 | inconclusive [inhibitor, partial curve, poor fit]
COC(=O)CSC1=C(C#N)C(=O)NC(c2ccccc2)S1 (stereo not given) | active: 2.06 µM
c1ccc(Nc2nnc(SCc3cccc4ccccc34)s2)cc1 | inconclusive [inhibitor, single point]
CCOC(=O)c1c(CN(C)C)n(-c2ccccc2)c2cc(Br)c(OC)cc12 | inconclusive [inhibitor, single point]
Cc1ccc(CCNC(=O)c2cc3c(-c4ccccc4F)nn(C)c3s2)cc1 | inconclusive [inhibitor, single point]

SMILES | Potency
COc1ccc(OC)c(NC(=O)c2cn(CC(C)C)c(=O)c3cc(OC)c(OC)cc23)c1 | inconclusive [inhibitor, single point]
Cc1cc(=O)oc2c3c(cc(OCC(=O)N[C@H](C(=O)O)c4ccccc4)c12)OC(C)(C)CC3 | inactive
c1csc(Cn2nnnc2CN2CCN(c3nc4ccccc4s3)CC2)c1 | inconclusive [inhibitor, single point]
CCCC1(c2ccccc2)NC(=O)N(CC(=O)NCC2COc3ccccc3O2)C1=O (stereo not given) | inconclusive [inhibitor, partial curve, poor fit]
N=c1c(C(=O)NCc2ccco2)cc2c(=O)n3ccccc3nc2n1C1CCCC1 | inconclusive [inhibitor, partial curve]
COc1ccc(C(N)c2csc(Nc3ncccn3)n2)cc1 (stereo not given) | inconclusive [inhibitor, single point]
CCOc1cc2[nH]c(=S)n(Cc3ccc(C(=O)NCCCN(CC)CC)cc3)c(=O)c2cc1OCC | inconclusive [inhibitor, single point]
NS(=O)(=O)c1ccc(CCNC(=O)c2ccccc2[N+](=O)[O-])cc1 | inactive
CCN1/C(=C/c2ccc3cc(C)ccc3[n+]2CC)Sc2ccccc21 | active: 0.058 µM
CC(C)(C)OC(=O)CNC(=O)c1[nH]cnc1C(=O)NCC(=O)OCc1ccccc1 | inconclusive [inhibitor, partial curve, poor fit]
COc1ccc(CN2C(=O)C(CC(=O)NCc3cccc4ccccc34)CC(C(=O)N(C)C)=C2C)cc1 (stereo not given) | inactive
CCOc1ccc(-c2oc3ccc(C)cc3c(=O)c2O)cc1 | inconclusive [inhibitor, single point]
COc1ccc(CNC(=S)N2CCN(Cc3ccccc3)CC2)cc1 | inconclusive [inhibitor, single point]
COc1ccc(CNc2ncc(-c3ccccc3)n2C)cc1 | inconclusive [inhibitor, single point]
CC1CN(C(=O)COC(=O)/C=C/c2ccccc2)CC(C)O1 (stereo not given) | inconclusive [inhibitor, partial curve, poor fit]
CCOc1ccc(CCNS(=O)(=O)c2c(C)n[nH]c2C)cc1OCC | inactive
O=C(NCCCN1CCOCC1)c1cc(-c2ccc(F)cc2)no1 | inactive
O=C(Nc1ccc(C(=O)OCc2cc(=O)n3nc(C4CC4)sc3n2)cc1)c1cccc(F)c1 | inconclusive [inhibitor, single point]
CCOC(=O)c1c(C)[nH]c(C(=O)OCC(=O)Nc2cc(C)ccc2OC)c1C | active: 4.11 µM
O=C(c1ccccc1)N1CCCc2ccccc21 | inconclusive [inhibitor, single point]
Cc1nc(NC(N)=S)sc1C(=O)Nc1ccccc1 | inactive
COc1ccc(N2CCN(CCCNC(=O)c3cc4sccc4n3C)CC2)cc1 | inconclusive [inhibitor, single point]
